In the supplement of paper PMC3334620:
Whole data set: some 33,000 sequences, median “E-score (-0.5 to 0.5)” near -0.035, cut for the highest 2% near 0.35. The list shows a part of the results.

These sequences were tested against T1, Pdr3 (UniProt P33200) (assay: PBM E-score (8-mer binding enrichment) (E-score (-0.5 to 0.5)); higher = stronger / more preferred TF binding; most listed sequences are background and not binding sites). Settings: protein concentration: 200 nM; construct: GST-full length.
T1 sequence: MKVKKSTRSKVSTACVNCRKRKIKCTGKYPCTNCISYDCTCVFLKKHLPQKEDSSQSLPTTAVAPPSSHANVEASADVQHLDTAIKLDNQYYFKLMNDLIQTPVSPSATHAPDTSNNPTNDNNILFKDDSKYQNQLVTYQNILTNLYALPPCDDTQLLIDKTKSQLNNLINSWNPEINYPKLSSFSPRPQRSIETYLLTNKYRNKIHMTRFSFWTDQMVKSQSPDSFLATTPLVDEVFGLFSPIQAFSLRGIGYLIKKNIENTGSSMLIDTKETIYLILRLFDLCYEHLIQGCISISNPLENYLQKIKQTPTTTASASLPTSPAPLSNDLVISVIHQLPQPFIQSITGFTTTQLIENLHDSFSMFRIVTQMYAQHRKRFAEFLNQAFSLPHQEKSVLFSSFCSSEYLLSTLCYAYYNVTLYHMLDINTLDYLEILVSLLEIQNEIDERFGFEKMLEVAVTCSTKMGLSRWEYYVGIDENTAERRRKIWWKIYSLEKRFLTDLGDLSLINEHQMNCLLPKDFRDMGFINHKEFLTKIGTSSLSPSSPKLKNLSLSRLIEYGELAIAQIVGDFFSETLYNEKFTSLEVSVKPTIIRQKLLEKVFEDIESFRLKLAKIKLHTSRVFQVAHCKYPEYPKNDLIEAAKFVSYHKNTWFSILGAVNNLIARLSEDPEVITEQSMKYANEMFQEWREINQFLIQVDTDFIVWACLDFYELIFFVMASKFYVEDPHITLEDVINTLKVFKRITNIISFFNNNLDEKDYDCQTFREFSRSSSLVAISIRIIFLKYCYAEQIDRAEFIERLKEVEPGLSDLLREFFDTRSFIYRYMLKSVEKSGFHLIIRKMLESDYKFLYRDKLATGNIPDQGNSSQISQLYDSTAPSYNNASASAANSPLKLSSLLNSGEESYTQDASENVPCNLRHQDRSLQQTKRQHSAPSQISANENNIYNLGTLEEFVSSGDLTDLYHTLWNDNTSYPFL
Outline: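 Each ungapped eight-base word and its reverse complement, pooled, received an E-score from the Universal PBM Analysis Suite. Underlying scans, normalised with masliner, recorded fluorescent anti-GST bound to GST-tagged yeast transcription factors. These were applied at about 100-200 nM to universal all-10-mer Agilent arrays double-stranded by primer extension.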

Sequence	PBM E-score
AAGACTCA	-0.346
AGTTGCAA	-0.101
ACGCACTC	-0.123
AGTAGCAT	-0.0675
AAACTTGA	-0.142
ACTGCCGA	0.207
CACACAAC	-0.131
GCTACAGC	-0.0518
GATTGGCC	0.0353
AAACAGTT	0.0427
GCCCCCCA	-0.254
ACTTTTCT	-0.107
ATGCTGCA	-0.219
TCTTAAGA	-0.152
AAATCGGG	0.195
ATATCTAA	-0.0673
CTCGGAGA	0.312
GTCAGATA	-0.0744
ACGCTCAC	-0.0101
CTGATTGC	-0.0452
GATACAGC	0.143
AAGAGCCT	-0.236
ATGCTAAG	-0.173
AACGTGTG	-0.324
CTCCAATC	-0.0449

Sequence	PBM E-score
GCCCAACC	0.056
CAGACACG	-0.00957
ATATTGTC	0.194
ACCTTTCA	-0.0243
GACGATCC	0.223
ACGCGGCG	0.209
CTATGGGA	-0.116
AAGTGCCC	0.0267
AGAACAGC	-0.0171
ATCATAGC	-0.025
GAACTACC	0.0415
GAACACGC	0.106
CTGCTGAC	-0.0562
CTAATCTA	-0.128
GTCCTAGA	-0.23
AAACCATG	0.141
TGACGTCA	0.0226
GGGAAGAA	-0.0436
ACACAAGG	-0.149
ATAGGTCG	0.0936
ATCCTGCG	-0.0951
TCCTTCCA	-0.133
CATTATTC	0.0651
CGAAGACC	0.0631
CTCTTAAG	-0.162

Sequence	PBM E-score
AGTCGCCA	-0.248
ATCCCCGG	0.386
CTTTGAGC	-0.241
ATGCCCAT	-0.183
ACTGCACA	-0.193
CATCGTCG	-0.12
CTTGAGAC	-0.228
CATGACCG	0.0152
CACGAATG	-0.0841
ACGCCTTC	-0.0435
AGACCTCT	-0.166
ATAGGTAA	-0.194
ACTGCACT	-0.0921
CGCAAAAC	0.0542
CTCACCGC	-0.0657
GCACCCGC	0.287
AGGGTGAT	-0.181
CGAATCGC	0.0252
AGTTAATA	0.109
AGACAGCT	-0.174
CGCCTCTC	-0.308
GAATGCTC	0.0393
CAGGCTGA	-0.188
CCACCAAC	0.0804
TAAAGACA	-0.229

Sequence	PBM E-score
ACCGGCGT	0.0675
TCGCTACA	-0.285
ATGAATGC	0.00547
CTCATAAC	-0.168
ATGACAAT	-0.0353
AATTTCTG	-0.0978
GAGCATAA	0.178
AAATTTAA	0.0473
ATACGTAG	-0.129
GTTCTGCA	-0.0811
CCGTGCTA	0.0735
ACTCAGCC	-0.146
TCTCGTAA	-0.0824
GTATTCAC	0.142
CCCAGTCG	0.0531
AAACGTAC	-0.169
ATGCTACG	-0.00101
ACATGAAC	-0.094
ATCACAGG	-0.194
TGCTCCAA	-0.106
CCATAGGC	-0.0293
ACGAGCTG	-0.065
CAAGCGCA	0.15
CTTCTGAC	-0.272
CTGCAGTA	-0.195

Sequence	PBM E-score
TCTAAAAA	-0.222
ACCTTTTC	-0.156
GTTTGACA	0.0509
CCCGCCGC	0.27
TGAAAGAA	-0.108
ATTTGCGA	-0.0443
CCTCCACG	-0.0326
AAGGGGAG	-0.118
CGGGTAGA	0.15
CATCACCA	-0.148
TACGACAA	0.00989
CGCGTACC	-0.133
ACCACTCC	0.197
ACAGGTAT	-0.038
AGAAGATG	-0.124
GTGCGAAC	0.0001
AGCCTTTA	-0.193
ATCGCGGA	0.282
CTACAGTC	-0.245
ACATAACG	0.00157
CCCCGTGC	0.264
CCTTTATA	-0.263
ACGCACGT	-0.184
ACGATAGA	-0.244
CCATGTTC	0.0963

Sequence	PBM E-score
AGATCCGG	0.362
AAAAGAAT	0.121
GACGCGAA	0.117
CAACGCGA	0.114
ACGGACGC	0.205
ACCGCGCA	0.0742
GAACGAGA	0.0162
GTTGGCCA	-0.05
CCACTACG	0.0288
GGTGGGCA	-0.114
AAACGTCA	-0.149
ATTCGGTC	0.0502
GAGACAGA	0.0698
ATTGCAGG	-0.0394
TTTACAAA	-0.125
AGATGGTG	-0.184
ATTGAAAT	-0.0141
CCGGCGCG	0.314
TATGTAAA	-0.0204
ATCATCAG	-0.0703
AGTATCAA	0.159
CCGCTTCG	-0.00951
CGGTTGGA	0.0147
AACAAGCA	-0.103
CAGAAGCG	0.087

Sequence	PBM E-score
CGTGCGGC	0.0733
GTTTTAAA	-0.0722
GCGGGTGA	0.26
GTGTCCAA	0.0112
GTAATTAC	0.0427
ACCGTAGC	-0.1
ACCTCATG	-0.284
GCCGCAGC	0.0881
GGAGAATA	0.103
CAGGGAGG	-0.249
CCACGACA	0.0954
ACGCTGGA	-0.019
CTGTTATC	-0.0181
GATATTTA	0.0188
CGTCAACC	0.00812
TAGTTGCA	-0.0621
TCTACGAA	-0.271
TCTGCAGA	-0.133
ATTTTCCC	0.151
GGCACACC	-0.0278
CGACTAAG	-0.0883
GTATTTAA	-0.0813
